The other results are listed elsewhere or left out. At the low end of the ranking the order means little. The protein was read in a cell extract, so binding may be indirect.

The target of the assay is T1, HNF4alpha8 (COS-7 nuclear extract) (UniProt P41235-5).
T1 sequence: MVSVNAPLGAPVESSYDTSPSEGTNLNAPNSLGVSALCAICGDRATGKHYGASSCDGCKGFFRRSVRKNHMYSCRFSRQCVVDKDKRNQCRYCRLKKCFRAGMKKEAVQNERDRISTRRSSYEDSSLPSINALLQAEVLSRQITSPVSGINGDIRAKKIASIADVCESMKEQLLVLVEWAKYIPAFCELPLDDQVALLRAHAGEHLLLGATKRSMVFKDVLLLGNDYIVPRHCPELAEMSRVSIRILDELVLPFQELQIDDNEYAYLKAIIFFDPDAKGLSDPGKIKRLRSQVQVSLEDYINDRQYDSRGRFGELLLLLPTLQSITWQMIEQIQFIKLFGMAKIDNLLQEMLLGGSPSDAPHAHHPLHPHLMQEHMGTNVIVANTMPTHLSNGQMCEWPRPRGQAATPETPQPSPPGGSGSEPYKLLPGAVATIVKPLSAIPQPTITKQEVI
The experiment in a line: protein-binding microarray. The conditions noted are these: COS-7 nuclear extract on double-stranded Agilent 4x180k PBM; binding buffer, salt, pH and temperature not given; high values mean tight binding; double strand, one strand shown; sequences stand for … in …GCCTAGGGAGATTAGAGTATCGGTCGA
ATTAGTAGCAATACTTTCAGCTAGCTGAGT: the binding signal (log2 normalized intensity) is -0.294.
Consider ACAAAAAGCGGACAAACCAGTCCCATCTGT, for which the binding signal (log2 normalized intensity) is -1.33.
Next, CTTCAGCACCTTTTAAAATAGATAAGTCCC: -0.0887.
Next, ACCCACCAACAAAAGAAAGCCCATTAAATC: -1.33; TTGCCACATTTATTGTGAGATTACGTAAGT: 1.55.
Take CAATGCAAATCCCAGAGTTCAAAGGCCAAA: the binding signal (log2 normalized intensity) stood at 5.12.
Next, AAATTACACTGGGAGGCAAATCTCTTGGTC: 0.296; TGAATGATCAAAGGTTGGTTTTTGGAGACA: 3.36; GGATGAAGGAAGAGGGAAGACCAAAGGCCA: -1.36.
The same measure for TACACTCGCCGTGTGACTGAGGGCTGACAT: -1.23; for CTTTCAGAAGGGGACAAGCACATTAGGAGG: -1.35; for AGCAACCAGAATGTTCAAAAGTGTGTTGGT: 1.48.
The same measure for CAGCGAAGCTGTGTCAGGCATTGTACTCAC: 1.41; for ATGCCTTAAGGGACCTCTTAGAAAAGTAGA: -0.345.
Take TGGATAGTGCCTTTTCTAATATCTACATGT: the binding signal (log2 normalized intensity) is 1.61.
The same measure for AGTCTAACCCAACTAAGAACACAGTCATTT: -0.136; for TCCAGGCTTGGAGCCCCTTTGGAGGGGAAG: -1.25.
The same measure for TTTCTCCAGTGCCCTTAGGGGCCGCATTGA: 0.395.
The same measure for TACTCACACTCAAGGCAAGAGAGTCATAAA: -0.837; for AAGTCCAATCTTCTGGCCCCATCTATCTAG: 1.64; for CACCTCCTTTGACCTGGGAATTCAAGGAAT: 0.319.
In the case of CAGGACACTTCTGAAAAAAATATTGAACAA, the binding signal (log2 normalized intensity) was -1.1.
The same measure for ACTGTTGCATCAAACAGCTTAGGGTTCAAA: 2.7.
AACAAGGTATGAGGCCAGTTTTCCTAAGGG: the binding signal (log2 normalized intensity) was -1.36.
Next, GCTCCAGAGAGCCAGATGAAGCTGCAGCCT: -1.17; TGTCTCAGCCCAAGATCAAAAGGCAGAGAG: -1.33; TCGCCCTCCGTCGTGGCCTGGCGTGGATTC: 0.159.
Next, TTTGGCTGTAGAAAGACTAAAGTTCAGGAG: 2.29.
Next, GGAGGTCTGCACAAAATACAAGTCGTAAAG: -1.34.
Take ATTGCACCCTTCCCTAAGATTTATCCCAAA: the binding signal (log2 normalized intensity) was 1.2.
The same measure for GAAGTATTTATTGAGCACACACTCTTCGAA: -1.23; for CTGACTGTGTCTGTTTACCCACTTGGGGTT: 1.36; for ATATGCACTTGCCCTTTGGTAATCCTGCTC: 3.05.
On to TGTGCCGGGTATGTGGGGCGTGTGTTAGAC, for which the binding signal (log2 normalized intensity) turned out to be 1.56.
Next, GTTTTGTCTTCTGTTTGCAAATGGATGAAT: 1.81; AAAGGGACTCATCTCCAAACGAGACTTTGG: 2.23.
Consider CCAGTTCTTTTGACCTTTGCCTCATTCTTA, for which the binding signal (log2 normalized intensity) amounted to 7.02.
The same measure for TGTTGCGTAAGGGTCTGACCTGGCTGCTTG: 1.36; for TATCTTTGGAGAATGCCTTTTGTGTAGGAG: 1.69; for CAGTGTGTTGCATGCCACAGCGCCCTCAGT: 0.8.
Next, AAAGAAGCAAAGGTTGGCTAAAGATAACCT: -1.23; TCTAGGAGCCTGGACATTTGCCACCAATGC: -1.27.
Next, TGGGCAGGCTCCCTCCCTGGGAGGCAGGAC: -1.33.
Consider ATCTGCGAAATGGGGATAAACACCCCCATC, for which the binding signal (log2 normalized intensity) was determined as 0.531.
The same measure for GGAAAGCACAGCTGATTGCTCAACCCAAAG: -1.36; for TGAGACATTTTGTCTTTTCTCCCCTGACTA: 2.66.
Next, AGGCCCACACCCCTGGGGAAGGCAGGTCTC: -1.32.
Consider CCTGAGAGGGCTCAAGGTCTGCATGCCATT, for which the binding signal (log2 normalized intensity) is -0.212.
The same measure for TCCCCCAACTTACTTAGTGGCTCCTAGAAT: -0.204; for ACCTGAGAACAAACAATGGTTTGGGACAAA: -1.12.
The same measure for TCACAGGTTCCAGCATGGACTTCACAGCCT: 1.02.
In the case of AAGGTTATTATATTGTGGGTTCTTGCCCTT, the binding signal (log2 normalized intensity) was 3.46.
Regarding ACAAGCCAGGTGTGCAGAGAGCAAACGAAC, the binding signal (log2 normalized intensity) was -1.27.
For GGTCCGGCCCGACTCACGACCCCGCGGGAC, the binding signal (log2 normalized intensity) is 1.2.
Take CCCCCCAAGTTGAAGCCATCCTCCCACCTC: the binding signal (log2 normalized intensity) stood at 5.73.
With GCATTTCTGGACTTGGATCAGCCTGATTGA, the binding signal (log2 normalized intensity) came to 2.43.
On to ATCTAGAGACACTATGTGCATTCCAAGGCT, for which the binding signal (log2 normalized intensity) was -1.36.
In the case of GAGAGGGATAAAAGGGGAAAAGGTCAAATA, the binding signal (log2 normalized intensity) is 3.21.
The same measure for CTTGCTAAGTATAAAGTTAAGACCTACATT: -1.35; for CGACCTCATGAGTAGAGAGCAATCATGGGC: -1.29; for AAAGGTGAGTATGAGTAGGCTGTAGAGGAG: -1.09.
The same measure for TCTCTCACCAGAAAAATGTACATGTGCAAA: 1.61; for GGATTCAGATCCAGTGGACTCTCTGTTTGA: 2.91.
For AACTCCTTGAGAAGTACAACTTCAGCAATG, the binding signal (log2 normalized intensity) was -1.33.
Next, GAGAGCTGTCTGCTGAGGATGTGGCCCCGA: 2.38; CAAGAAGGTCAGAGGTGAGAGCAGAATGAG: -1.2.
Next, CGCAGCGAATGGTCGCGCCGGGCGCCGCTC: -1.31.
For the sequence CTCCTCTCCAGCCCATCCTAAGCCCCAGGG, the binding signal (log2 normalized intensity) is 1.28.
Next, ATCTTCATTTATAGATAAGCACACTAAGGC: -1.3.
Next, ACAGAACCTTGTTTTGTCTTCTGTTTGCAA: 1.08.
The same measure for CACTTGTAGGCCTGTGTGCATGGAGTGCAC: 0.798; for ATCTGGTCTTACTGATGGGCAAAGTTTTCA: 1.18; for GCAGAGGGACAACTGAGTTACGTAATGTGT: 0.932.
